Results from PMC4336329 (PLoS ONE, 2015).
Screen size: about 310,000 compounds; about 2,200 (0.71%) showed an effect of 50% or more. Effects have a minus sign here. The list shows a part of the results.

These molecules were tested against human ether-à-go-go-related gene (hERG) potassium channel (human, UniProt Q12809) (assay: primary screen, population patch clamp on CHO cells stably expressing hERG).
human ether-à-go-go-related gene (hERG) potassium channel, sequence (Q12809 whole entry, looked up): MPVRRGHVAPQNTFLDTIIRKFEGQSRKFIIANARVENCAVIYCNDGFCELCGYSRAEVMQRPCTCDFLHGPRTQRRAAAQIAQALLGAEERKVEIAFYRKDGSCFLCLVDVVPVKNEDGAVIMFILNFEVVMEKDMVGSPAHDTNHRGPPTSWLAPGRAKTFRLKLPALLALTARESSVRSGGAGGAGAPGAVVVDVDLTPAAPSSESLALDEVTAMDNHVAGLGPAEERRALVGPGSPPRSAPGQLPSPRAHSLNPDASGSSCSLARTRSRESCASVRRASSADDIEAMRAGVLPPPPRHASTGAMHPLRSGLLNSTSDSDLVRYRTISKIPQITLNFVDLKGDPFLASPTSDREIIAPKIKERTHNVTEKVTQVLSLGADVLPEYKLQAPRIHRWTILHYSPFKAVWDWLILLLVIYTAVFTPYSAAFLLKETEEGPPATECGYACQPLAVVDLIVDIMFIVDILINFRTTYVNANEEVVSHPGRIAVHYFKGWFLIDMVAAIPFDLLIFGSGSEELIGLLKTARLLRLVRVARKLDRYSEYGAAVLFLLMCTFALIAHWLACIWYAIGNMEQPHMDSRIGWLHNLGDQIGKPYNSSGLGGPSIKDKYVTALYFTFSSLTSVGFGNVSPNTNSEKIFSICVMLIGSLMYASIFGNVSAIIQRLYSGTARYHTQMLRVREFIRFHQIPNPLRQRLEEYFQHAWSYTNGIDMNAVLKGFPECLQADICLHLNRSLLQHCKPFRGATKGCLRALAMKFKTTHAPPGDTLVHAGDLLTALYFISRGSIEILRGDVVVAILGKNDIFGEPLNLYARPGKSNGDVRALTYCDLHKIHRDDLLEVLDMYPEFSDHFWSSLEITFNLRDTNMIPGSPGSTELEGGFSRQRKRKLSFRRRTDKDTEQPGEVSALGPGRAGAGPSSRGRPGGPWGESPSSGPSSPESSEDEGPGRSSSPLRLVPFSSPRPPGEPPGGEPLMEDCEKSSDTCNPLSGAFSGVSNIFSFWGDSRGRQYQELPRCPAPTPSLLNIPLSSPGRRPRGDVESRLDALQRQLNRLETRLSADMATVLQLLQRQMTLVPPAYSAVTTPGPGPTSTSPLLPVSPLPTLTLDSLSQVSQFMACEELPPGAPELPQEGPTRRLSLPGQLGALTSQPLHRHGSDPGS

| SMILES | hERG current change (%, negative = inhibition) at 1uM [%] |
| --- | --- |
| Cc1nc(NS(=O)(=O)c2cccs2)c2c3c(sc2n1)CCC3 | 12.5 |
| O=C(COc1ccc(S(=O)(=O)NCc2ccccc2)cc1Cl)NCc1ccncc1 | 16.6 |
| CC(=O)Nc1ccc(C(=O)NCC(=O)OCc2ccccc2F)cc1 | 10.2 |
| CCc1nnc(NC(=O)c2ccc(S(=O)(=O)N3CCCC(C)C3)cc2)o1 (stereo not drawn) | 14.5 |
| CCCNC(=O)c1ccccc1NC(=O)c1cccc(-n2cnnn2)c1 | -2.11 |
| CCOc1ccccc1NC(=O)CSc1n[nH]c(=O)n1-c1ccccc1 | 14.8 |
| Cc1cccc(N2CCN(S(=O)(=O)c3ccc4c(c3)NC(=O)C(C)S4)CC2)c1C (stereo not drawn) | 11.1 |
| O=C(O)CCCC(=O)N1N=C(c2ccccc2)CC1c1ccc2nccnc2c1 (stereo not drawn) | 7.53 |
| C=CCSc1nc2c(cnn2-c2ccc(C)c(C)c2)c(=O)[nH]1 | 5.69 |
| CC(C)Oc1ccc(S(=O)(=O)N2CCOCC2)cc1NC(=O)C1=COCCO1 | 11 |
| CN(C)c1ccc(NC2=C(Cl)C(=O)c3ccccc3C2=O)cc1 | 18 |
| O=C1COc2ccc(C(=O)COC(=O)Cc3ccccc3)cc2N1 | 10 |
| O=C(O)c1ccc(-c2ccco2)n1Cc1ccccc1 | 10.2 |
| Cc1ccc(/C=N/N2CCCCC2)o1 | 11.7 |
| CC1=C(C#N)C(NC(=O)c2ccc(Cl)cc2)(C(F)(F)F)C(=O)N1 (stereo not drawn) | -1.43 |
| COc1ccc(Cl)cc1NC(=O)CN1CCN(Cc2ccccc2)CC1 | -32 |
| COCCOc1ccc(C(F)(F)F)cc1NC(=O)c1ccc(F)cc1 | 8.11 |
| CCOC(=O)c1c(-c2cccs2)csc1NC(=O)CN1CC(C)OC(C)C1 (stereo not drawn) | -1.73 |
| Cn1nc(C(=O)N2CCCC2)c2ccccc2c1=O | 18.6 |

| SMILES | hERG current change (%, negative = inhibition) at 1uM [%] |
| --- | --- |
| CCOC(=O)c1ccc(NC(=O)CN2C(=O)C(=O)N(CC(C)C)C2=O)cc1 | 1.53 |
| CC1(C)C(C#N)=C(N)Oc2c1c(=O)oc1ccccc21 | -1.73 |
| Cc1cc(C(F)(F)F)c2sc(N)nc2n1 | 8.91 |
| CCOC(=O)C1CCCN(c2c(NCCN(CC)c3ccccc3)c(=O)c2=O)C1 (stereo not drawn) | -5.33 |
| Cc1ccc(CN2CCCN(Cc3cc(C)ccc3C)S2(=O)=O)cc1 | 13.8 |
| CC(NC(=O)c1ccccc1C(=O)O)c1ccc(-n2ccnc2)cc1 (stereo not drawn) | 5.44 |
| COc1ccc(C(c2nnnn2Cc2cccs2)N2CCC(C(N)=O)CC2)c(OC)c1 (stereo not drawn) | 2.25 |
| CCc1c(O)nc(SCC(N)=O)n(-c2ccccc2F)c1=O | 6.17 |
| CCC(Cc1ccccc1)NC(=O)C1CC1 (stereo not drawn) | 13.2 |
| Cc1ccc(S(=O)(=O)c2nc(S(C)(=O)=O)sc2N(C)C)cc1 | 13.3 |
| O=C(CN1C(=O)NC2(CCCCCC2)C1=O)c1ccc(OC(F)F)cc1OC(F)F | 4.56 |
| Cc1ccnc(SCC(=O)c2cccs2)n1 | 9.86 |
| COc1cc(CNC2CCCCC2)c(Br)cc1OC1CCCC1 | 4.44 |
| CC(NC(=O)C(=S)N1CCN(C)CC1)c1ccccc1 (stereo not drawn) | 8.9 |
| COC(=O)c1ccc(S(=O)(=O)N2CCCCC2)o1 | 9.93 |
| COc1ccc2c(CC(=O)Nc3c(C)n(C)n(-c4ccccc4)c3=O)coc2c1 | 20.1 |
| Cc1ccc(C2(C)NC(=O)N(CC(=O)Nc3cc(S(=O)(=O)N4CCOCC4)ccc3C)C2=O)cc1 (stereo not drawn) | -9.42 |
| CCC(C)(C)C(=O)Nc1ccc(C(N)=O)cc1 | 3.68 |
| CC(C)c1cc(C(=O)N/N=C/C(Br)=C/c2ccccc2)n[nH]1 | 8.64 |

| SMILES | hERG current change (%, negative = inhibition) at 1uM [%] |
| --- | --- |
| CCOC(=O)C1=C(C)NC(=S)NC1c1ccc(OC(=O)c2ccco2)cc1 (stereo not drawn) | 10.4 |
| C#CCOCCOCCOCCNc1nc(N2CCN(C(=O)[C@H]([C@@H](C)CC)n3cc([C@@H](N)CO)nn3)CC2)nc(N2CCN(C(=O)[C@H](Cc3cc4ccccc4[nH]3)n3cc([C@@H](N)Cc4ccc(O)cc4)nn3)CC2)n1.Cl | 5.83 |
| CCc1ccc(NC(=O)C2CCCN(S(=O)(=O)c3cccs3)C2)cc1 (stereo not drawn) | 9.22 |
| COc1cc(CC2C(=O)Nc3ccccc32)cc(C)c1O (stereo not drawn) | 10.3 |
| COc1cc(NC(=S)N2CCN(C(=O)C3CCCO3)CC2)c(OC)cc1Cl (stereo not drawn) | -4.08 |
| COc1ccc(N2CCN(C(=O)c3ccc(CS(=O)Cc4ccc(C)cc4)o3)CC2)cc1 (stereo not drawn) | 9.46 |
| Cc1ccc(OCC(=O)NCCNC(=O)c2cnccn2)cc1 | 13.2 |
| COCc1cc(CN2CCN(C)CC2)c(O)c2ncccc12 | 11.3 |
| COc1cccc(C(=O)Nc2nnc(-c3ccccc3)s2)c1 | 13.7 |
| COc1cccc(NC(=O)CSc2nnc(-c3cc(C)[nH]n3)n2N)c1 | 14.4 |
| COc1ccccc1CNC(=O)C1CCCN(S(=O)(=O)c2cccc3nsnc23)C1 (stereo not drawn) | 6.86 |
| O=C(CSc1nnc2ccccn12)NCCN1C(=O)CSC1=O | 15.6 |
| O=C1/C(=C/c2cccnc2)SC(=S)N1c1ccc(F)cc1 | 32.6 |
| O=C1CCC(=O)N1CC(O)COc1ccccc1 (stereo not drawn) | 9.28 |
| O=C(CCNC(=O)c1ccccc1)Nc1ccc(F)c(Cl)c1 | 8.53 |
| COc1ccc(-c2cc(C(=O)NNC(=S)NC(=O)c3c(-c4ccccc4)noc3C)[nH]n2)cc1 | 11.9 |
| Cc1ccc(NC(=O)N2CCCC2C(=O)NCc2ccc(Cl)cc2)cc1 (stereo not drawn) | 5.86 |
| CC(Oc1ccccc1F)C(=O)NN (stereo not drawn) | 5.81 |
| Cc1cc(NC(=O)COC(=O)CCNS(=O)(=O)c2cccc(C(F)(F)F)c2)no1 | 14.2 |
